The record followed here is the RNAGym collection of RNA variant scans (doi:10.1093/nar/gkz1192).

B1: CPEB3 Ribozyme (parent)
chain: UAACAGGGGGCCACAGCAGAAGCGUUCACGUCGCAGCCCCUGUCAGAUUCUGGUGAAUCUGCGAAUUCUGCUGUAUAUCUC

Read counts are not given, so values of variants with three or more changes are uncertain.

In this data set the parent is B1. Briefly: self-cleavage, relative activity (ratio to wild type); higher = more cleavage; in vitro, sequencing. Put shortly: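 CPEB3 self-cleaving ribozyme mutant libraries were made by rounds of error-prone PCR, barcoded, and transcribed in vitro with T7 RNA polymerase for 5 hours at 37°C. Cleavage occurred during transcription and a 15 min DNase I step before EDTA stop. RNAs were reverse transcribed with template switching and Illumina-sequenced, with DNA sequencing mapping barcodes to variants. Relative activity is the variant's cleaved/total read fraction divided by wild type's (minimum 5 reads), averaged across three batches.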
Take UAACAGGGGGCCACAGCAGAAGCGUUCACGUCGCAGCCCCUGUCAGAUUCUGGUAAAUCUGCGAAUUCAGCCGUACAUCUC [G55A U69A U72C U76C]: the self-cleavage is 0.18.

As for UAACAGGGGGCCACAGCAGAAGCGUUCACGUCGCAGCCCCUGUCAGAUUCUGGCGAAUCUGCGAAUGCCGCUGUAUAUCAC [U54C U67G U69C U80A], the self-cleavage is 0.21.

With UAACAGGGGGCCACAGCAGAAGCGUUCACGUCGCAGCCCCUGUCAGAUUCUGGCGAAUCUGCGAAUUCAGCCGUAUAUCUC [U54C U69A U72C], the self-cleavage amounted to 0.27. The value for UAACAGGGGGCCACAGCAGAAGCGUUCACGUCGCAGCCCCUGUCAGAUUCUGGUAGAUCUGCGAAUUCUGCAGUAUAUCUC [G55A A56G U72A] was 0.46; that for UAACAGGGGGCCACAGCAGAAGCGUUCACGUCGCAGCCCCUGUCAGAUUCUGGCGAAUCAGCGAAUUCUGCUGUACAUCUC [U54C U60A U76C] was 0.33. The value for UAACAGGGGGCCACAGCAGAAGCGUUCACGUCGCAGCCCCUGUCAGAUUCUGGCGAAUCUGCGAAUGCUGCUGUAUAUCCC [U54C U67G U80C] was 0.46; that for UAACAGGGGGCCACAGCAGAAGCGUUCACGUCGCAGCCCCUGUCAGAUUCUGGCGAAUCUGCGAAUUCUGCCGUAAAUCUC [U54C U72C U76A] was 1.21; that for UAACAGGGGGCCACAGCAGAAGCGUUCACGUCGCAGCCCCUGUCAGAUUCUGGUAAUUCUGCGAAUUCUGCUGUAUACCUC [G55A A57U U78C] was 0.31. With UAACAGGGGGCCACAGCAGAAGCGUUCACGUCGCAGCCCCUGUCAGAUUCUGGCGAACCUGCGAAUUCUACUGUAUACCUC [U54C U58C G70A U78C], the self-cleavage is 0.58. The value for UAACAGGGGGCCACAGCAGAAGCGUUCACGUCGCAGCCCCUGUCAGAUUCUGGCGAAUCUGCGAACUCUGCUGCAUAUCUC [U54C U66C U74C] was 0.42. The value for UAACAGGGGGCCACAGCAGAAGCGUUCACGUCGCAGCCCCUGUCAGAUUCUGGUCAAUCGGCGAGUUCUGCUGUAUAUCUC [G55C U60G A65G] was 0.3; that for UAACAGGGGGCCACAGCAGAAGCGUUCACGUCGCAGCCCCUGUCAGAUUCUGGCGAAUCAGCGAAUUCUGCUGUAUACCUU [U54C U60A U78C C81U] was 0.28; that for UAACAGGGGGCCACAGCAGAAGCGUUCACGUCGCAGCCCCUGUCAGAUUCUGGCGAAUCUCCGAAUUCUGCUGUAUAUCCC [U54C G61C U80C] was 0.35. The value for UAACAGGGGGCCACAGCAGAAGCGUUCACGUCGCAGCCCCUGUCAGAUUCUGGCGAAUCCGCGAAUACUGCUGUAUAUCUC [U54C U60C U67A] was 0.16; that for UAACAGGGGGCCACAGCAGAAGCGUUCACGUCGCAGCCCCUGUCAGAUUCUGGCGAAUCUGCGAACUCUGCUGUAUGUCUC [U54C U66C A77G] was 0.38.

Regarding UAACAGGGGGCCACAGCAGAAGCGUUCACGUCGCAGCCCCUGUCAGAUUCUGGCGAAUCUGCGAACUCUGCUGUAUAUCCC [U54C U66C U80C], the self-cleavage stood at 0.26. As for UAACAGGGGGCCACAGCAGAAGCGUUCACGUCGCAGCCCCUGUCAGAUUCUGGCGAAUCUGCGAAUACUGCAGUAUAUCUC [U54C U67A U72A], the figure is 0.15; as for UAACAGGGGGCCACAGCAGAAGCGUUCACGUCGCAGCCCCUGUCAGAUUCUGGCGAAUCUGCGAACUCUGCUGUACAUCUC [U54C U66C U76C], 0.64. The value for UAACAGGGGGCCACAGCAGAAGCGUUCACGUCGCAGCCCCUGUCAGAUUCUGGCGAAUCAGCGAACUCCGCUGUAUAUCUC [U54C U60A U66C U69C] was 0.23; that for UAACAGGGGGCCACAGCAGAAGCGUUCACGUCGCAGCCCCUGUCAGAUUCUGGCAAAUCUACGAAUUCUGCUGUAUAUCUC [U54C G55A G61A] was 0.17; that for UAACAGGGGGCCACAGCAGAAGCGUUCACGUCGCAGCCCCUGUCAGAUUCUGGCGAACCUGCGGAUUAUGCUGUAUAUCCC [U54C U58C A64G C68A U80C] was 0.13. The value for UAACAGGGGGCCACAGCAGAAGCGUUCACGUCGCAGCCCCUGUCAGAUUCUGGUAAAUCUGCGAACCCUGCUGUAUAUCCC [G55A U66C U67C U80C] was 0.28. As to UAACAGGGGGCCACAGCAGAAGCGUUCACGUCGCAGCCCCUGUCAGAUUCUGGCGAAUCUGCGAAUUCCGCUGUAUAUAGC [U54C U69C C79A U80G], the self-cleavage came out at 0.58.

Regarding UAACAGGGGGCCACAGCAGAAGCGUUCACGUCGCAGCCCCUGUCAGAUUCUGGCGAAUCUGCGAAUUCUGCUGUACAUCCC [U54C U76C U80C], the self-cleavage worked out at 1.19.

In the case of UAACAGGGGGCCACAGCAGAAGCGUUCACGUCGCAGCCCCUGUCAGAUUCUGGCGAAUCCGCGAAUCCUGCUGUAUAACUC [U54C U60C U67C U78A], the self-cleavage came to 0.29. As for UAACAGGGGGCCACAGCAGAAGCGUUCACGUCGCAGCCCCUGUCAGAUUCUGGCGAAUCCGCGAAUUCAGCUGUAUAUCUC [U54C U60C U69A], the figure is 0.42. Regarding UAACAGGGGGCCACAGCAGAAGCGUUCACGUCGCAGCCCCUGUCAGAUUCUGGGGAAUCUGCGAAUCCUGCUGUAUAUCCC [U54G U67C U80C], the self-cleavage was 0.29. On to UAACAGGGGGCCACAGCAGAAGCGUUCACGUCGCAGCCCCUGUCAGAUUCUGGCGAAUCAGCGAAUUCUGCUGUAUAUCCC [U54C U60A U80C], for which the self-cleavage was 0.36. As for UAACAGGGGGCCACAGCAGAAGCGUUCACGUCGCAGCCCCUGUCAGAUUCUGGUUAAUCUGCGAAUUCUGCUGAAUAUCCC [G55U U74A U80C], the figure is 1.26. As for UAACAGGGGGCCACAGCAGAAGCGUUCACGUCGCAGCCCCUGUCAGAUUCUGGCGAAUCCGCGAAUUCUGCUGUAUGUCUC [U54C U60C A77G], the figure is 0.43; as for UAACAGGGGGCCACAGCAGAAGCGUUCACGUCGCAGCCCCUGUCAGAUUCUGGCGAAUCUGCAAAUUCUGCUGUACAUCUC [U54C G63A U76C], 0.77; as for UAACAGGGGGCCACAGCAGAAGCGUUCACGUCGCAGCCCCUGUCAGAUUCUGGCGAAUCUGCGAAUUCAGCUUCAUAUCUC [U54C U69A G73U U74C], 0.67. As for UAACAGGGGGCCACAGCAGAAGCGUUCACGUCGCAGCCCCUGUCAGAUUCUGGCGAACCAGCGAAUUCAGCUGUACAUCUC [U54C U58C U60A U69A U76C], the figure is 0.23; as for UAACAGGGGGCCACAGCAGAAGCGUUCACGUCGCAGCCCCUGUCAGAUUCUGGCGAAUCUACGAACUCUGCCGCAUAUCUC [U54C G61A U66C U72C U74C], 0.28.
